The other results are listed elsewhere or left out.
test system: PfAP2-HC AP2 domain (GST-tagged); experiment: gcPBM binding intensity (ln(normalized median fluorescence intensity)); higher = stronger DNA binding
Method in brief: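 For binding intensity, the highest Masliner-normalised natural-log median intensity across replicate spots of either probe orientation was taken. Protein bound to the array was stained with Alexa488 anti-GST antibody and scanned at 488 nm. The protein, GST-tagged P. falciparum DNA-binding domains from E. coli at about 25 μg on average, had been applied for 1 h to an Agilent 4 × 180k array of primer-extended double-stranded 36-bp intergenic genomic probes and negative controls.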

Sequence | gcPBM binding intensity (ln)
TTTGTAAAATAATATCTTTCATGTCCTTACTAATTA [GTGCAC_negctrl_site145] | 9.63
TATTTATTTAAAGGCACACATATTTTTATACTTTCT [CACACA_site3163] | 9.79
ATTATATATATATATAAACACACATAAATATAAATA [CACACA_site8291] | 9.92
AAAAAAGAAAAGAAATCATGAAAGAATCAAATAAAG [CACACA_negctrl_site1771] | 9.67
CAAATTTTTTATTAAACACACAAACATATATTTATA [CACACA_site6992] | 9.62
TTTTTATATATATTCTCACACACTTTTTATTTTAAC [CACACA_site657] | 9.91
TAAGGAAAAAATTATAGTACATAATAAATGTATATA [XGTACX_site8328] | 9.67
ATAAATATATTTCACGCACACACACCCCAAATAAAT [CACACA_site9272] | 10.4
AATTTTTTTTTTTTTTTTTCTTTTGTAATAAACCAT [XGTACX_negctrl_site334] | 9.36
TTCAGCATAAACACTTGTACATATATACTAAAAATT [XGTACX_site7272] | 9.57
AAAAAAAAAAAACACACACACACACCGAAATATATA [CACACA_site4261] | 10.6
CGTTGTAGGGAATGTAGTACAGTTATTATTTTATTA [XGTACX_site2429] | 9.66
TCATACATTTTCAGCCTGCACTTATATTTAATAATA [GTGCAC_site9863] | 9.64
TATATATATAAATACACACACACACCGATATATATA [CACACA_site5408] | 10.5
ATATATATATATTATACACACGCCGAAAAAATAAAA [CACACA_site1551] | 9.88
TTTATTTTATCTAAAAGTACTTAAATTAGTGTATTT [XGTACX_site5696] | 9.53
TTACGAAAAAACAAGAGTACATGATGTTATAAAATA [XGTACX_site1412] | 9.76
TATTAATTATTTTACTGTACTAATAATACTTTTATT [XGTACX_site2179] | 9.74
ATTATATTTTTAAGTACACACATATAAATAAATATA [CACACA_site7682] | 9.51

Sequence | gcPBM binding intensity (ln)
ATTATGTGAGGTAACTAAATATGTACGTAACGAAGA [CACACA_negctrl_site1400] | 9.73
TAATGTATAATTAATCGTACATTAGATTGTTGTGTT [XGTACX_site52] | 9.63
ATATATATATATGTGTGTACTTAAAAATATAATGCA [XGTACX_site7753] | 10
ATTTCCCCAACGTGGGTGCATATATTTATGTGTGAA [GTGCAC_site9439] | 9.64
TTTAGAGAAGTCAAGTGTACATATAAAATAATTCAC [XGTACX_site4997] | 9.53
ATAAAAATAAATAAATTATATAAATGTAATATGAAA [GTGCAC_negctrl_site663] | 9.78
AAAAAAAAATATATATGTACATATGTATAATAAAAA [XGTACX_site2110] | 9.82
AATGAAGACTTTTTTACACACTTCATATATTATATA [CACACA_site2034] | 9.72
TATTTATTTATATATGCATGCTAATAATTATAACAT [TGCATGCA_site988] | 9.65
ACCTATGTATATTATACACACTCCAAACTATTCTTT [CACACA_site6939] | 9.95
ATATTATATAACTTTTGTACGAACTATTTTATATAT [XGTACX_site6] | 10
TAAAGTGTCAAATTCACACACATATATATATATATA [CACACA_site1380] | 9.99
TTTTTTTTTGTTAGTTGTACGTTAAATGAATTTACT [XGTACX_site7675] | 9.65
TAAATTAGAATAAATACACACAAATTAGAATTCTAT [CACACA_site7781] | 9.77
GTATAATTGGAAATTACACACCTTATAATGTAACAT [CACACA_site6091] | 9.73
AATGATTTTAAAAAATGTACTTTATAAACAAAATTA [XGTACX_site3803] | 9.45
CATGAATATTTTAATGTGCACATTTATCATTATATG | 9.86
ATATTTTCAGTTCTCCATTATGTTCCCATTATTTTT [CACACA_negctrl_site990] | 9.94
CCAAACTAAATGTACACACATACATAAATATAAATA [CACACA_site1141] | 9.96

Sequence | gcPBM binding intensity (ln)
ATGTAATAAATATACACACACAAATATATATATATA [CACACA_site2395] | 10.7
ATATATATATATATATGGTAAAGTAAAAGGAAATAC [XGTACX_negctrl_site45] | 10.2
GAATAATCTAGAAACACACAAACACGACAAAAGAAA [CACACA_site4135] | 10.2
TACTAACTTTTTAAAAGTACAGAACCATAACCATAA [XGTACX_site7182] | 9.61
AGTTTATATTATTAAAGTACATATATATATTCTTAA [XGTACX_site3164] | 9.51
AGTCGAATGATGTACACACATACAAAACATTTATGC [CACACA_site4022] | 9.94
ATCATGTTATATATATGTACTAATAATATAATATAA [XGTACX_site1326] | 9.51
AGTATATTAATATAATGTACAAACGTTTATTTTGTA [XGTACX_site5980] | 9.79
GTTTAAAATCTTTGCACACATATAAATAAATATATT [CACACA_site2555] | 9.77
GAAAAGTAGACAATATGTACATATAGTATTTATAAA [XGTACX_site878] | 10
AGCAACCCCCTAGCTACACACATATAGATATAAATA [CACACA_site6577] | 10.6
AAATATCTACATATTTGTACATATTTATACATATTT [XGTACX_site6300] | 9.82
TATATATTATAAAAGAGTACAGAAAGAAAAAAAAAT [XGTACX_site8305] | 9.74
ATATTCAATATATTATGTACACATATATGAGGATAT [XGTACX_site7019] | 9.75
AAACTTTTTTTAAAAACACACATATATATTTATATA [CACACA_site4092] | 9.79
ATAATGTTTCTTTCAACACACAAAAAATGAACCCAT [CACACA_site4947] | 10
TATTTATAAAAAAAATGTACATTTATGTATAAGCTA [XGTACX_site3266] | 9.55
TAAAAAAGTTATATTACACACTTTATTGGTTAACTT [CACACA_site653] | 9.71
ACATATAAATTATATACACACAATAATATATATATA [CACACA_site1384] | 9.85

Reference: the supplement of paper PMC11417369
